In all, about 3,600 compounds were measured (“viability index relative to DMSO control”: median about 0.81, lowest 2% from about 0.13 on). This is one part of the list.
Each molecule was assayed on Plasmodium falciparum NF54 stage V gametocytes (assay: viability index relative to DMSO control (fraction); higher = less gametocyte killing). Settings: 1.25 µM, incubation time: 72 h.
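Also: 384-well serum-free SaLSSA: MitoTracker Red CMXRos staining with saponin lysis, high-content imaging, treated-well particle count divided by plate-mean count of DMSO wells.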

Compound | viability index
CCCCOc1ccc(C2C3CCCC=C3C(C#N)=C(N)C2(C#N)C#N)cc1 (stereo not given) | 0.735
O=C1C(=Cc2ccccc2)SC(=Nc2ccccc2)N1C1CCCCC1 | 0.649
c1ccc(Cn2nnnc2CN2CCN(C(c3ccccc3)c3ccccc3)CC2)cc1 | 0.906
OC1=C2C(=Nc3ccccc3SC2c2ccc(Br)cc2)c2ccccc21 (stereo not given) | 0.799
COc1ccc(Nc2c3c(nc4ccc(NC(=O)c5cc(=O)c6ccccc6o5)cc24)CCCC3)cc1OC | 0.913
O=C(Nc1ccc(-c2ccc(Cl)cc2)cc1)c1cccs1 | 0.595
CCn1c(SCc2ccc(Cl)cc2Cl)nc2sc3c(c2c1=O)CCN(C)C3 | 1.12
COc1ccc(C(=O)C(C#N)=CNC2CCN(Cc3ccccc3)CC2)cc1 | 0.867
CCCC(=O)N1CCN(c2nc(Cc3ccccc3)c3c(c2C#N)CC(C)(C)OC3)CC1 | 0.568
COC(=O)C1=C(C)NC(=Cc2cc(C)n(-c3cc(C)ccc3OC)c2C)C1=O | 0.954
O=C(CCl)NCCOc1ccc(Cl)cc1Cl | 0.939
O=c1c2c3c(sc2ncn1Cc1cccc(Cl)c1)CC(N1CCCCC1)CC3 (stereo not given) | 0.808
COc1ccc(Nc2nc(N3CCCC3)c3ccccc3n2)cc1 | 0.74
OC(Cn1nnc2ccccc21)Cn1c2ccc(Br)cc2c2cc(Br)ccc21 (stereo not given) | 0.902
CC(C)(C)c1cc(CCC(=O)Nc2c3c(nc4ccccc24)N(c2cccc(Cl)c2)CC3)cc(C(C)(C)C)c1O | 0.947
COC(=O)C1=CNC=C(C(=O)OC)C1c1ccc(Cl)c([N+](=O)[O-])c1 | 0.712
COc1ccc(OCC(O)CNC2CCN(CC(O)COc3ccc(Cl)c(Cl)c3)CC2)cc1 (stereo not given) | 0.56
COc1cc(OC)cc(C(=O)N2CCN(c3ccccn3)CC2)c1 | 0.541
CCOc1ccc(Nc2nc(N)c3ccccc3n2)cc1 | 1.08
Cc1cc(N2CCN(C)CC2)nc2ccc(NC(=O)Nc3ccccc3Cl)cc12 | 0.863
CCCCOc1ccc(NC2=C(N3CCCCC3)C(=O)c3ccccc3C2=O)cc1 | 0.166
CC(=O)Nc1c(NCc2ccccc2)c2ccccc2sc1=O | 0.596
CN(C)CCN1CCN(c2cccc(-c3cccc4cccnc34)n2)CC1 | 0.685

Compound | viability index
CCOC(=O)C1=C(C)NC2=C(C(=O)CC(c3ccc(OC)c(OC)c3)C2)C1c1ccccc1F (stereo not given) | 0.467
CCOC(=O)C1=C(C)NC2=C(C(=O)C(C(=O)OCC)C(c3ccccc3OC)C2)C1c1ccc([N+](=O)[O-])cc1 (stereo not given) | 0.193
CC1CN(C(=O)c2sc3cccc(F)c3c2Cl)CC(C)O1 (stereo not given) | 0.731
C=CCSc1nc2sc3c(c2c(=O)n1-c1ccccc1)CCN(C)C3 | 0.931
Cc1ccc(NC(=S)NCCO)cc1C | 0.846
COc1ccc(C2C(C(=O)OC3CCCC3)=C(C)NC3=C2C(=O)CC(C)(C)C3)cc1Br (stereo not given) | 0.642
Cc1ccccc1N=c1oc2ccc3ccccc3c2cc1-c1nc2ccccc2[nH]1 | 0.815
CCn1c(SCC(=O)Nc2cccc(C)c2)nnc1-c1ccccc1 | 1.06
CCOC(=O)C1=C(CC)NC2=C(C(=O)CC(C)(C)C2)C1c1ccccc1F (stereo not given) | 0.743
COc1ccc2c(c1)OC(O)(C(F)(F)C(F)(F)F)CC2=O (stereo not given) | 0.6
COc1cc(C(=O)C=CNc2ccc(N(C)C)cc2)cc(OC)c1OC | 0.826
Cc1cccc(NC(c2cccc(Cl)c2)c2ccc3cccnc3c2O)n1 (stereo not given) | 1.03
COc1ccc(C2CC(=O)C3=C(C2)NC(C)=C(C(=O)OC(C)C)C3c2ccc(F)cc2)cc1OC (stereo not given) | 0.344
Cc1nc(NC(=N)N)nc2c(C)cccc12 | 0.795
Cc1cc(CNC(=O)CC2C(=O)NCCN2Cc2ccccc2C(F)(F)F)nn1C (stereo not given) | 0.615
c1cc2cc3c(cc2c2cc4c(cc12)C[N+]1(CCCC1)C4)C[N+]1(CCCC1)C3 | 0.598
O=C(Nc1ccc(-c2nc3ccccc3[nH]2)cc1)c1ccc(-c2cccc([N+](=O)[O-])c2)o1 | 0.751
COc1ccc(OC)c(NC(=O)CSc2nc(NCc3ccc(Cl)cc3)c3ccccc3n2)c1 | 0.921
COc1cccc(Cn2c3cc(C)sc3c3cnn(C)c(=O)c32)c1 | 0.536
CCC(=O)NC(c1cccc([N+](=O)[O-])c1)c1ccc2cccnc2c1O (stereo not given) | 1.12
COc1ccc(Cn2c(C)nc3cc(NC(=O)Nc4ccccc4)c(C)nc32)cc1 | 0.792
CCCCNC(=O)C1CCC(CN(Cc2c(Cl)cccc2Cl)S(=O)(=O)c2ccc(Br)cc2)CC1 (stereo not given) | 0.884
CCC(CC)C(=O)Nc1c2c(nn1-c1cccc(Cl)c1)CS(=O)C2 (stereo not given) | 0.802

Compound | viability index
COc1ccc(OC)c(-c2ccc(O)c(CN3CCCC(C)C3)c2)c1 (stereo not given) | 0.644
CN=C1S/C(=C\c2ccc(OCC(=O)O)c(OC)c2)C(=O)N1C | 0.588
CN(c1ccc(Br)cc1)S(=O)(=O)c1ccc2[nH]cc(C(=O)N3CCN(c4ccccc4)CC3)c(=O)c2c1 | 1.37
CC(=O)N(C1=C(N2CCCCC2)C(=O)c2ccccc2C1=O)c1ccccc1C | 0.31
Cc1ccccc1N=Nc1ccc(NC(=O)c2ccco2)c(C)c1 | 0.761
CCOC(=O)C1=C(C)N=c2sc(=Cc3ccccc3OC(C)=O)c(=O)n2C1c1ccc(OC)cc1 (stereo not given) | 0.747
N#Cc1c(-c2ccccc2)cc(N2CCN(Cc3ccc(Cl)cc3)CC2)n2c1nc1ccccc12 | 0.575
Cc1ccc(C)c(NC(=O)c2c(-c3c(Cl)cccc3Cl)noc2C)c1 | 0.861
CC(=O)N(C1=C(N2CCOCC2)C(=O)c2ccccc2C1=O)c1ccc(C(C)C)c(C)c1 | 0.509
COC(OC)C(C)=NNC(N)=S | 0.112
Cn1c(=O)c(Cl)c2c3c(c(Cl)ccc31)C(=O)c1ccccc1-2 | 0.0761
CCOC(=O)C1=C(c2ccccc2)N=c2sc(=Cc3cccnc3)c(=O)n2C1c1c(OC)ccc2ccccc12 (stereo not given) | 0.853
COc1ccc(CCN2C(=O)CC(C(=O)Nc3cccc(Cl)c3)SC2=Nc2ccccc2)cc1OC (stereo not given) | 1.08
COc1cc2nc(N3CCN(c4nc(N)c5cc(OC)c(OC)cc5n4)CC3)nc(N)c2cc1OC | 0.0192
Cc1ccccc1CN1CCN(CC=Cc2ccccc2)CCC1=O | 0.981
Cc1ccc(NC(=O)COc2ccc(Cl)cc2Cl)nc1 | 0.976
CCCCCOC(=O)C1=C(C)NC2=C(C(=O)CCC2)C1c1ccc(OC)c(Br)c1 (stereo not given) | 0.638
Cc1ccc(NC(=O)c2cc3ccccc3oc2=O)nc1 | 1.12
Oc1ccc(-c2nc(-c3ccccc3)c(-c3ccc4oc5ccc(-c6[nH]c(-c7ccc(O)cc7)nc6-c6ccccc6)cc5c4c3)[nH]2)cc1 | 0.914
CCN(CC)S(=O)(=O)c1ccc(-c2csc(=Nc3cccc4ccccc34)n2C)cc1 | 1.05
O=C1CSc2nc3ccccc3n21 | 1.12
COc1ccc(C2CC(=O)C3=C(C2)NC(C)=C(C(=O)OC2CCCC2)C3c2cccc(C)c2)cc1OC (stereo not given) | 0.811
O=c1c2ccccc2[nH]c2ccc(F)cc12 | 1.13

Compound | viability index
CCOC(=O)c1cccc(NC(=O)CC2C(=O)N(c3ccccc3)C(=O)N2C2CCCC2)c1 (stereo not given) | 0.341
O=C1OC(c2ccccc2)=NC1=C(Cl)Cl | 1.1
c1ccc2c(NC3CCCC3)nc(Nc3ccc4c(c3)OCO4)nc2c1 | 0.632
CC1=C(C(=O)OCCOc2ccccc2)C(c2cccc([N+](=O)[O-])c2)C2=C(CCCC2=O)N1 (stereo not given) | 1.22
O=C(NN=Cc1ccc(O)cc1O)c1ccncc1 | 0.931
COc1cc(Br)c(CCNC(=O)Cc2cc(OC)c(OC)cc2Br)cc1OC | 0.805
CC1CCCCN1CC(=O)N1CCN(C(=O)CN2CCCCC2C)CC1 (stereo not given) | 1.03
CC(=O)N(C1=C(N2CCCC2)C(=O)c2ccccc2C1=O)c1ccc(F)cc1 | 1
O=C(NN=Cc1ccncc1)c1cc(-c2cccc([N+](=O)[O-])c2)n[nH]1 | 0.734
O=S(=O)(Oc1ccc2ccccc2c1Cc1c(OS(=O)(=O)c2ccccc2)ccc2ccccc12)c1ccccc1 | 0.682
N=c1n(CCN2CCCCC2)c2ccccc2n1CC(O)c1ccc(Cl)c(Cl)c1 (stereo not given) | 0.506
CCN1CCN(c2cc(C)c3cc(NC(=O)C=Cc4ccc(OC)cc4)ccc3n2)CC1 | 0.767
CCCc1c(CC)c(=N)c2ccccc2n1C | 0.785
CN(C)c1ccc(C2N(C)c3ccccc3N2C)cc1 | 0.764
O=C1C(=O)N(Cc2ccccc2[N+](=O)[O-])c2ccccc21 | 0.74
Cc1cc(Cl)c(S(=O)(=O)N2CCCC2)cc1OCC(=O)NC1CCCCC1 | 1.02
CCOC(=O)CCS(=O)(=O)c1ccc(Br)cc1 | 0.875
COc1ccc(C(=O)C[n+]2ccc3c(c2)nc(-c2ccc(OC)cc2OC)n3C)cc1 | 0.864
CCCCN1Cc2ccc(C(=O)NCCN3CCOCC3)cc2N=C1c1ccc(OC)cc1 | 0.708
Cc1ccc(Sc2c(C)nn(C(=O)c3cccnc3)c2C)cc1 | 1.1
CCCc1cc2c(=O)c(-c3ccc4c(c3)OCO4)c(CC)oc2cc1OC(C)C | 0.521
